In all, about 390,000 compounds went through this assay and about 930 (0.24%) were called active. This list was built around the results that the source calls inconclusive (neither active nor inactive); the mix of calls is not that of the screen. Calls come from the whole dose curve; as a rule, active = well fitted activation curve with a large enough effect; inconclusive = small, poorly fitted or top-dose-only effect; inactive = no such curve, though single readings can be large or run the other way. Potencies beside an inconclusive call are fits to weak or partial responses and may not hold up.
Assay: qHTS for Suppressors of FUS Proteinopathy: Primary screen using FUS-linked yeast assay; note: nearly all actives have a fitted effect of over 55% in size;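 for growth rescue (activation): plate controls were DMSO vehicle for no effect and reference control for full effect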
Conditions: S. cerevisiae FUS-expressing, OD600, 24 h; Potency: growth rescue; growth rescue (activation): at 76.6 µM (top of the series)
Outline: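 Read-out: OD at 600 nm after 24hr at 30C, reporting rescue of FUS-induced yeast toxicity. Cells at OD 0.005 in galactose (2%) minimal medium; compounds tested in a dilution series; CP55940 titration from 92uM final as control.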
In the case of `CCN(CC)C(=O)c1cccc(-c2csc(C(C)(O)c3ccc(F)c(F)c3)n2)c1` (stereo not drawn), the Potency is reported as inconclusive: 31.6 µM [activator, partial curve].
For `CCOc1ccc(C(C(=O)NC2CCCC2)N(CCCO)C(=O)c2ccc(-c3ccccc3)[nH]2)cc1` (stereo not drawn), the Potency was active: 35.5 µM.
In the case of `N#C/C(=C/c1ccc(O)c(O)c1)C(=O)NCc1ccc(Cl)cc1`, the Potency is reported as “inactive”.
In the case of `CCCCCCSc1cccc(-c2nc3ccc(C)cn3c2NCc2ccccc2)c1`, the Potency is reported as inconclusive: 20 µM [activator, single point].
For `O=C(CSc1nnc(COc2ccccc2)n1-c1ccc(Cl)cc1)Nc1ccc2c(c1)OCO2`, the Potency was inconclusive: 17.8 µM [activator, partial curve].
In the case of `O=C(c1cc(C(=O)N2CCOCC2)c2nc3ccccc3n2c1)c1cc(Cl)cc(Cl)c1O`, the Potency is reported as inconclusive: 22.4 µM [activator, partial curve, poor fit].
With `COc1cccc(C(=O)c2sc(NC(C)C)nc2N)c1` the Potency was “inactive”.
For `Cc1ccc(C)c(N2N=C(C(=O)Nc3ccccc3N3CCCC3)CCC2=O)c1`, the Potency was inconclusive: 39.8 µM [activator, single point].
With `O=C1CCCCC(=O)N(c2ccccc2)c2ccccc21` the growth rescue (activation) was inconclusive: 62.6% [activator].
For `O=c1cc(Nc2ccc3c(c2)OCCO3)[nH]c(=O)n1C1CCCCC1`, the Potency was inconclusive: 22.4 µM [activator, partial curve, poor fit].
In the case of `COc1ccc(-c2nnc3n2N=C(C)CS3)cc1`, the Potency is reported as “inactive”.
In the case of `CCCc1cc(=O)n2[nH]c(C)cc2n1`, the Potency is reported as “inactive”.
For `O=C(COC(=O)c1ccc(S(=O)(=O)NCc2ccco2)cc1)NCCC1=CCCCC1`, the Potency was inconclusive: 35.5 µM [activator, partial curve].
For `Cc1ccc(C)c(NC(=O)c2cc(-c3ccc(Cl)cc3)nc3ccccc23)c1`, the Potency was “inactive”.
For `Cc1cc(-n2c(C)c3c(C)nnc(C)c3c2C)ccc1N`, the Potency was inconclusive: 28.2 µM [activator, partial curve, poor fit].
For `COc1cc(-c2noc(CSc3nc(-c4ccccc4)cc(=O)[nH]3)n2)cc(OC)c1OC`, the Potency was “inactive”.
For `COc1ccc(NC(=O)c2sc3nc4c(cc3c2N)CN(C(C)C)CC4)c(OC)c1`, the Potency was inconclusive: 25.1 µM [activator, partial curve].
For `CCc1ccccc1NC(=O)CSC1=C(C#N)C(c2ccc3c(c2)OCO3)C2=C(CCCC2=O)N1` (stereo not drawn), the Potency was inconclusive: 44.7 µM [activator, partial curve, poor fit].
In the case of `CC1Cc2cc(S(=O)(=O)N3CCC(C(=O)N4CCN(c5ccccc5F)CC4)CC3)ccc2N1C(=O)C1CC1` (stereo not drawn), the Potency is reported as inconclusive: 31.6 µM [activator, single point].
With `CCN(CC)C(=O)c1sc2nc(N3CCOCC3)c3c(c2c1N)CCCC3` the Potency was inconclusive: 11.2 µM [activator, partial curve, poor fit].
In the case of `COc1ccc(-c2nc3c4ccccc4ccn3c2CC2CCCCC2)cc1OC`, the Potency is reported as inconclusive: 50.1 µM [activator, single point].
For `Cc1ccc(NS(=O)(=O)c2ccc3[nH]c4c(c3c2)CCCC4)c(C)c1`, the Potency was “inactive”.
In the case of `Cc1cc(C)cc(C(=O)NCC(=O)OCC(=O)N2CCN(S(=O)(=O)c3ccc4ccccc4c3)CC2)c1`, the Potency is reported as inconclusive: 25.1 µM [activator, partial curve].
With `Cc1ccc(NC(=O)c2ccccc2F)c(NC(=O)c2ccccc2F)c1` the Potency was inconclusive: 0.891 µM [activator, full curve, poor fit].
With `O=C(O)CCc1ccc(-c2ccc(Br)cc2)o1` the Potency was “inactive”.
For `COc1ccc(-n2c(SCC(=O)N3CCCCC3)nc(O)cc2=O)cc1`, the Potency was active: 31.6 µM.
In the case of `Cc1cccc(CSc2nc3cccnc3n2Cc2ccc(C(=O)NCc3cccs3)cc2)c1`, the Potency is reported as inconclusive: 50.1 µM [activator, single point].
With `CCCCCCC(=O)N(O)C1CC(=O)N(c2ccc(Cl)cc2)C1=O` (stereo not drawn) the Potency was “inactive”.
For `Cc1ccc(C)c(N2CCN(C(=O)c3cc4c(=O)n(Cc5cccnc5)ccc4nc3C)CC2)c1`, the Potency was “inactive”.
In the case of `CCN(CC)C(=O)C1=C(C)N(CCC2=CCCCC2)C(=O)C(CC(=O)NC(c2ccccc2)c2ccccc2)C1` (stereo not drawn), the Potency is reported as inconclusive: 25.1 µM [activator, single point].
For `COc1ccc(CNC(=O)c2ccc3c(c2)N(Cc2ccccc2F)C(=O)c2ccccc2S3=O)cc1` (stereo not drawn), the Potency was inconclusive: 11.2 µM [activator, partial curve].
With `CC(=O)Nc1nonc1-c1nnc(SCc2ccccc2C)n1C` the Potency was “inactive”.
In the case of `COc1cc(OC)cc(C(=O)Nc2ccc(S(=O)(=O)N3CCCCC3c3cccnc3)cc2)c1` (stereo not drawn), the Potency is reported as inconclusive: 35.5 µM [activator, partial curve, poor fit].
With `O=C1NC[C@@H](c2ccccc2)OC(=O)[C@@H](Cc2ccc(F)cc2)CC/C=C/C[C@H]1CC(=O)N(CCO)Cc1ccccc1` the Potency was active: 25.1 µM.
In the case of `CCOC(=O)c1ccc(NC(=O)c2ccc3c(c2)c(C)c(C)n3Cc2ccc(F)cc2)cc1`, the Potency is reported as “inactive”.
With `N#CC1=C(N)N(c2ccccc2)C2=C(C(=O)CCC2)C1c1cccs1` (stereo not drawn) the Potency was inconclusive: 35.5 µM [activator, partial curve, poor fit].
For `CCOC(=O)C(=CNc1ccc(C(F)(F)F)cc1)C(=O)OCC`, the Potency was “inactive”.
In the case of `O=C(O)c1ccc(/C=N/n2cc(-c3ccccc3)[nH]c2=S)cc1`, the Potency is reported as “inactive”.
For `Cn1cc(CCNC(=O)CC2C(=O)NCCN2Cc2cccc(Oc3ccccc3)c2)cn1` (stereo not drawn), the Potency was inconclusive: 39.8 µM [activator, single point].
In the case of `CCCCCCCCN1C(=O)[C@@H](CC(=O)NCCCN2CCCC2=O)C[C@@]2(C(=O)OC)C1=C[C@H](COCc1ccccc1)O[C@@H]2C`, the Potency is reported as inconclusive: 28.2 µM [activator, partial curve, poor fit].
For `CCc1nnc(NS(=O)(=O)c2ccc(NC(=S)NC(=O)/C=C/c3ccccc3)cc2)s1`, the Potency was “inactive”.
For `CC(=O)Oc1ccc(Cn2c(C)c(C(=O)NC3CC3)sc2=O)cc1`, the Potency was “inactive”.
With `COc1cccc2sc3cc(C#CC4(O)CCCCC4)ccc3c(=O)c12` the Potency was inconclusive: 11.2 µM [activator, partial curve, poor fit].
In the case of `COc1cc(OC)c(NC(=O)c2c(C)nn(-c3ccc(C)cc3)c2-n2cccc2)cc1Cl`, the Potency is reported as “inactive”.
In the case of `O=C(COCc1ccncc1)N1CCN(c2ccc(F)cc2Cl)CC1`, the Potency is reported as “inactive”.
For `Cc1ccc(C(=O)N/C(=C\c2cn(S(=O)(=O)N(C)C)c3ccccc23)C(=O)N2CCCC2)cc1`, the Potency was inconclusive: 44.7 µM [activator, partial curve, poor fit].
For `COC(=O)C[C@H]1CC[C@H]2[C@H](COc3ccc(NC(=O)C4CCOCC4)cc3C(=O)N2C)O1`, the Potency was “inactive”.
In the case of `CSc1ncnc2sc(C)c(C)c12`, the Potency is reported as inconclusive: 31.6 µM [activator, single point].
For `COc1ccc(-n2c(COc3ccc(C)cc3)n[nH]c2=S)cc1`, the Potency was “inactive”.
For `Cc1cc(C)nc(SCc2nc3ncccn3c2Br)n1`, the Potency was inconclusive: 50.1 µM [activator, single point].
For `COCCNC(=O)Cn1c(=O)n(Cc2ccc(C(=O)NCCc3ccc(OC)c(OC)c3)cc2)c(=O)c2ccccc21`, the Potency was inconclusive: 44.7 µM [activator, single point].
For `O=C(CSc1nc2ccccc2nc1Cc1ccc(F)cc1)Nc1ccc2c(c1)OCO2`, the Potency was “inactive”.
With `COc1ccc2oc(=N)c(-c3nnc4n3CCCCC4)cc2c1` the Potency was “inactive”.
In the case of `Cc1cccc(NC(=O)CCS(=O)(=O)c2ccc3c(c2)NC(=O)CS3)n1`, the Potency is reported as inconclusive: 35.5 µM [activator, single point].
With `CCCn1c(NC(=O)c2ccccc2Br)nc2ccccc21` the Potency was “inactive”.
In the case of `CCN(CC)C(=O)CC[C@@H]1CC[C@]2(CCCN(C(=O)c3ccccc3)C2)O1`, the Potency is reported as “inactive”.
In the case of `COc1cccc(-c2cccc(-c3nc(C(=O)NCc4ccc5c(c4)OCO5)cc4c3[C@H](CCO)N(S(=O)C(C)(C)C)C4)c2)c1` (stereo partly drawn), the Potency is reported as active: 20 µM.
For `O=C(COc1cccc(C(F)(F)F)c1)NCCCN1CCCC1=O`, the growth rescue (activation) was inconclusive: 68.9% [activator].
For `Cc1ccc(NC2(c3nnnn3-c3c(C)cccc3C)CCCCC2)cc1`, the Potency was “inactive”.
For `COC(=O)c1sc(S(=O)(=O)Nc2ccc(C)cc2)c(C(=O)OC)c1C`, the Potency was “inactive”.
For `O=C(NCc1ccc(F)cc1)c1ccc(CSc2nc3ccncc3n2Cc2ccc(F)cc2)cc1`, the Potency was “inactive”.
For `CCc1cccc(C)c1NS(=O)(=O)c1c(C(=O)N2CCCCCC2)c(C)n(C)c1C`, the Potency was inconclusive: 35.5 µM [activator, single point].
For `CC(C)C1C(=O)N(Cc2cn(CC3CCCCC3)nn2)CCS(=O)(=O)N1Cc1ccc(-c2ccccc2)cc1` (stereo not drawn), the Potency was inconclusive: 14.1 µM [activator, partial curve, poor fit].
For `CCC(=O)Nc1c(C#N)c2nc3ccccc3nc2n1C1CCCCC1`, the Potency was “inactive”.
With `COc1ccc(S(=O)(=O)N(C)C[C@H]2Oc3cc(Br)ccc3S(=O)(=O)N([C@H](C)CO)C[C@H]2C)cc1` the Potency was inconclusive: 25.1 µM [activator, single point].
With `CCOc1ccc(NC(=O)Nc2cccs2)cc1` the Potency was inconclusive: 35.5 µM [activator, partial curve, poor fit].
With `CCC1=Nc2cc(C(=O)NCCCOC)ccc2Sc2ccccc21` the Potency was inconclusive: 44.7 µM [activator, partial curve, poor fit].
With `Cc1ccc(C(=O)c2sc(Nc3ccccc3F)c(S(=O)(=O)c3ccccc3)c2N)c(C)c1` the Potency was inconclusive: 8.91 µM [activator, partial curve].

Source: PubChem BioAssay AID1347120 (National Center for Advancing Translational Sciences (NCATS), 2019)
Potency is the fitted concentration of half-maximal effect; tags give direction and shape of the fitted curve.
